{
  "source": "paper PMC11995724",
  "about": "“Antibiotic target discovery by integrated phenotypic and activity-based profiling of electrophilic fragments” (Cell chemical biology, 2025)",
  "note": "The campaign covered roughly 3,200 compounds. About 110 (3.4%) showed an effect of 50% or more. The list shows a part of the results.",
  "data": [
    {"tested_on": "T1, V. cholerae SAD30", "T1 construct": "SAD30", "design": "species or system S. aureus MSSA476 (TSB) or V. cholerae SAD30 (LB); 384-well bacterial growth screen at 25 uM, OD600 relative to DMSO control", "details": "relative growth, OD600, LB; 25 µM; inhibitor", "units": {"% of control remaining": "%"}, "values": [
      {"smiles": "CC(C)C(NC(=O)CCl)c1ccc(F)cc1", "note": "(stereo not shown) [4-E13, 2-chloro-N-[1-(4-fluorophenyl)-2-methylpropyl]acetamide]", "% of control remaining": 96.0966},
      {"smiles": "Cn1cc(C=C(C#N)C(=O)NCCc2ccccc2)cn1", "note": "[8-L10, 2-cyano-3-(1-methyl-1H-pyrazol-4-yl)-N-(2-phenylethyl)prop-2-enamide]", "% of control remaining": 69.5445},
      {"smiles": "Cc1ncccc1NC(=O)[C@H](C)NC(=O)C(C)Cl", "note": "(stereo partly drawn) [6-D09, 2-chloro-N-[(1S)-1-[(2-methylpyridin-3-yl)carbamoyl]ethyl]propanamide]", "% of control remaining": 88.1221},
      {"smiles": "N#CC(=Cc1cnn(-c2ccc(Cl)cc2)c1)C(=O)NC1CCCCC1", "note": "[8-A08, 3-[1-(4-chlorophenyl)-1H-pyrazol-4-yl]-2-cyano-N-cyclohexylprop-2-enamide]", "% of control remaining": 90.2107},
      {"smiles": "CC(Cl)C(=O)Nc1ccc(C(C)(C)C)cc1", "note": "(stereo not shown) [4-G12, N-(4-tert-butylphenyl)-2-chloropropanamide]", "% of control remaining": 80.0518},
      {"smiles": "COc1cc(C)c(C(C)NC(=O)CCl)cc1OC", "note": "(stereo not shown) [6-M09, 2-chloro-N-[1-(4,5-dimethoxy-2-methylphenyl)ethyl]acetamide]", "% of control remaining": 93.4307},
      {"smiles": "C=CC(=O)N1CCC(C(=O)NCc2ncnn2CC)CC1", "note": "[3-P03, N-[(1-ethyl-1H-1,2,4-triazol-5-yl)methyl]-1-(prop-2-enoyl)piperidine-4-carboxamide]", "% of control remaining": 112.733},
      {"smiles": "COc1ccccc1NC(=O)C(C)Cl", "note": "(stereo not shown) [5-L20, 2-chloro-N-(2-methoxyphenyl)propanamide]", "% of control remaining": 97.5097},
      {"smiles": "O=C(CCl)Nc1ccccc1C(=O)c1ccccc1", "note": "[4-J06, N-(2-benzoylphenyl)-2-chloroacetamide]", "% of control remaining": 93.8538},
      {"smiles": "C=CC(=O)NCCC(=O)N1CCC2(CC(=O)c3ccccc3O2)C1", "note": "(stereo not shown) [1-F12, N-(3-oxo-3-{4-oxo-3,4-dihydrospiro[1-benzopyran-2,3'-pyrrolidin]-1'-yl}propyl)prop-2-enamide]", "% of control remaining": 101.325},
      {"smiles": "C=CC(=O)NCCc1cnc2c(Cl)cnn2c1", "note": "[1-L06, N-(2-{3-chloropyrazolo[1,5-a]pyrimidin-6-yl}ethyl)prop-2-enamide]", "% of control remaining": 104.024},
      {"smiles": "C=CC(=O)NCCN1C(=O)SC(=Cc2ccc(Cl)cc2)C1=O", "note": "[2-C05, N-(2-{5-[(4-chlorophenyl)methylidene]-2,4-dioxo-1,3-thiazolidin-3-yl}ethyl)prop-2-enamide]", "% of control remaining": 84.792},
      {"smiles": "COc1ccc(O)c(C=C(C#N)C(=O)Nc2cccc3ccccc23)c1", "note": "[8-N14, 2-cyano-3-(2-hydroxy-5-methoxyphenyl)-N-(naphthalen-1-yl)prop-2-enamide]", "% of control remaining": 69.2726},
      {"smiles": "C=CC(=O)N(CC)CC(=O)N1CCNC(=O)CC1c1ccccc1", "note": "(stereo not shown) [3-E21, N-ethyl-N-[2-oxo-2-(5-oxo-7-phenyl-1,4-diazepan-1-yl)ethyl]prop-2-enamide]", "% of control remaining": 108.498},
      {"smiles": "CC(Cl)C(=O)NCc1nc2c(s1)CC(c1ccccc1)CC2", "note": "(stereo not shown) [7-A05, 2-chloro-N-[(6-phenyl-4,5,6,7-tetrahydro-1,3-benzothiazol-2-yl)methyl]propanamide]", "% of control remaining": 77.7135},
      {"smiles": "N#CC(=Cc1ccc(F)cc1)C(=O)NCCc1cccc(Cl)c1", "note": "[8-K06, N-[2-(3-chlorophenyl)ethyl]-2-cyano-3-(4-fluorophenyl)prop-2-enamide]", "% of control remaining": 57.9878},
      {"smiles": "C=CC(=O)Nc1ccc(-c2nnnn2C)cc1", "note": "[2-F18, N-[4-(1-methyl-1H-1,2,3,4-tetrazol-5-yl)phenyl]prop-2-enamide]", "% of control remaining": 90.9679},
      {"smiles": "C=CC(=O)N[C@H]1CCO[C@@H]1c1ccnn1C(C)C", "note": "(racemic) [3-K05, rac-N-[(2R,3R)-2-[1-(propan-2-yl)-1H-pyrazol-5-yl]oxolan-3-yl]prop-2-enamide]", "% of control remaining": 98.7943},
      {"smiles": "CC(=O)N(C)Cc1ccc(C(=O)CCl)cc1", "note": "[10-H04, N-{[4-(2-chloroacetyl)phenyl]methyl}-N-methylacetamide]", "% of control remaining": 100.682},
      {"smiles": "CC1CCN(Cc2csc(NC(=O)CCl)n2)CC1.Cl", "note": "[6-E17, 2-chloro-N-{4-[(4-methylpiperidin-1-yl)methyl]-1,3-thiazol-2-yl}acetamide hydrochloride]", "% of control remaining": 88.1221},
      {"smiles": "C=CC(=O)NCC(C)(C)Cn1cccn1", "note": "[1-J04, N-[2,2-dimethyl-3-(1H-pyrazol-1-yl)propyl]prop-2-enamide]", "% of control remaining": 59.1266},
      {"smiles": "CC(Cl)C(=O)NC1CC(C)N(c2ccccc2)C1", "note": "(stereo not shown) [6-L15, 2-chloro-N-(5-methyl-1-phenylpyrrolidin-3-yl)propanamide]", "% of control remaining": 87.0604},
      {"smiles": "O=C(CCl)N1CCOCC1c1noc(-c2ccccc2)n1", "note": "(stereo not shown) [5-E10, 2-chloro-1-[3-(5-phenyl-1,2,4-oxadiazol-3-yl)morpholin-4-yl]ethan-1-one]", "% of control remaining": 96.8372},
      {"smiles": "Cn1c(CNC=C(C#N)C(=O)Nc2ccccc2)cc(=O)n(C)c1=O", "note": "[9-G21, 2-cyano-3-{[(1,3-dimethyl-2,6-dioxo-1,2,3,6-tetrahydropyrimidin-4-yl)methyl]amino}-N-phenylprop-2-enamide]", "% of control remaining": 88.5792},
      {"smiles": "C=CC(=O)N[C@H]1CCCC[C@H]1c1ccnn1C", "note": "(racemic) [2-G18, rac-N-[(1R,2S)-2-(1-methyl-1H-pyrazol-5-yl)cyclohexyl]prop-2-enamide]", "% of control remaining": 92.975},
      {"smiles": "CCOc1ccc(C(=O)C(C)Cl)cc1", "note": "(stereo not shown) [10-G06, 2-chloro-1-(4-ethoxyphenyl)propan-1-one]", "% of control remaining": 103.331},
      {"smiles": "Cl.O=C(CCl)NC1CCN(Cc2cscn2)CC1", "note": "[7-H04, 2-chloro-N-{1-[(1,3-thiazol-4-yl)methyl]piperidin-4-yl}acetamide hydrochloride]", "% of control remaining": 92.1196},
      {"smiles": "Cc1ccc(C2OCCCC2CNC(=O)C(C)Cl)cc1", "note": "(stereo not shown) [7-B09, 2-chloro-N-{[2-(4-methylphenyl)oxan-3-yl]methyl}propanamide]", "% of control remaining": 83.3967}
    ]}
  ]
}
